Reference: the supplement of paper PMC4604168 (melanoma cell lines)
Some of the results follow. Most values come without repeats; read them as rough.

Test system: LB2518-MEL
Assay: cell count relative to DMSO control; melanoma cells; higher = more viable cells
Details: library dose: standard library concentration; 72 h
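Further: cells treated in 1,536-well plates, then fixed and DAPI-stained, with nuclei counted from automated high-throughput microscope images.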

SMILES | cell count
O=c1[nH]nc(Sc2ncc([N+](=O)[O-])s2)n1-c1ccc2c(c1)OCCO2 + C[C@]1(O)C[C@@H](c2nc(-c3ccc4ccc(-c5ccccc5)nc4c3)c3c(N)nccn32)C1 [OSI906] (first compound 1 µM, partner dose 2 µM) | 119%
O=c1[nH]nc(Sc2ncc([N+](=O)[O-])s2)n1-c1ccc2c(c1)OCCO2 + CCCCCCCCc1ccc(CCC(N)(CO)CO)cc1 [fingolimod] (first compound 1 µM, partner dose 10 µM) | 0.604%
O=c1[nH]nc(Sc2ncc([N+](=O)[O-])s2)n1-c1ccc2c(c1)OCCO2 + COc1ccc(-c2ccc3c(N4CCOCC4)nc(N4C[C@@H](C)O[C@@H](C)C4)nc3n2)cc1CO [KU0063794] (first compound 1 µM, partner dose 0.1 µM) | 83%
COc1cc(Nc2ncc(F)c(Nc3ccc4c(n3)NC(=O)C(C)(C)O4)n2)cc(OC)c1OC [Tamatinib] + c1cc(-c2cnn3cc(-c4ccc(OCCN5CCCCC5)cc4)cnc23)ccn1 [Dorsomorphin] (first compound 2 µM, partner dose 2 µM) | 88.8%
O=C(Nc1cccc(Cl)c1)Nc1ncc(CCNc2ncnc3ccsc23)s1 + O=C1NC(=O)/C(=C/c2ccc(-c3ccc(F)cc3O)o2)S1 [AS252424] (first compound 0.004 µM, partner dose 5 µM) | 86.9%
CC1(C)NC(=O)N(c2ccc([N+](=O)[O-])c(C(F)(F)F)c2)C1=O [nilutamide] + Oc1cc(-c2nc(-c3ccccc3)[nH]c2-c2ccncc2)ccc1Cl [L779450] (first compound 5 µM, partner dose 1 µM) | 85.4%
O=C(O)c1ccc(-c2c[nH]c3ncc(-c4ccccc4)cc23)cc1C1CCCC1 + O=C1NC(=O)/C(=C/c2ccc(-c3ccc(F)cc3O)o2)S1 [AS252424] (first compound 0.8 µM, partner dose 5 µM) | 95%
O=C(Nc1cccc(Cl)c1)Nc1ncc(CCNc2ncnc3ccsc23)s1 + CN(C)S(=O)(=O)c1ccc2c(c1)/C(=C/c1cc3c([nH]1)CCCC3)C(=O)N2 [SU6656] (first compound 0.004 µM, partner dose 2 µM) | 74%
O=c1[nH]nc(Sc2ncc([N+](=O)[O-])s2)n1-c1ccc2c(c1)OCCO2 + O=C(/C=C/c1cccnc1)NCCCCC1CCN(C(=O)c2ccccc2)CC1 [FK866] (first compound 1 µM, partner dose 0.05 µM) | 58.6%
O=C(O)c1ccc(-c2c[nH]c3ncc(-c4ccccc4)cc23)cc1C1CCCC1 + CC(C)CCN1c2nc(Nc3cc(F)c(O)c(F)c3)ncc2N(C)C(=O)C1C [BID1870] (first compound 0.8 µM, partner dose 1 µM) | 88.6%
O=C(O)c1ccc(-c2c[nH]c3ncc(-c4ccccc4)cc23)cc1C1CCCC1 + COc1cc2ncnc(Nc3ccc(Oc4ccccc4)cc3)c2cc1OC [SrcI1] (first compound 0.8 µM, partner dose 10 µM) | 111%
O=c1[nH]nc(Sc2ncc([N+](=O)[O-])s2)n1-c1ccc2c(c1)OCCO2 + CC(C)C[C@H](NC(=O)[C@H](Cc1ccccc1)NC(=O)c1cnccn1)B(O)O [Bortezomib] (first compound 1 µM, partner dose 0.005 µM) | 3.4%
O=c1[nH]nc(Sc2ncc([N+](=O)[O-])s2)n1-c1ccc2c(c1)OCCO2 + CCc1ccc(CCOc2ccc(CC3SC(=O)NC3=O)cc2)nc1 [pioglitazone] (first compound 1 µM, partner dose 10 µM) | 89.5%
C[C@@H]1CCN(C(=O)CC#N)C[C@@H]1N(C)c1ncnc2[nH]ccc12 + COc1ccc(-c2ccc3c(N4CCOCC4)nc(N4C[C@@H](C)O[C@@H](C)C4)nc3n2)cc1CO [KU0063794] (first compound 5 µM, partner dose 0.1 µM) | 89.8%
C[C@@H]1CCN(C(=O)CC#N)C[C@@H]1N(C)c1ncnc2[nH]ccc12 + O=S(=O)(c1ccccc1)N(CC(F)(F)F)c1ccc(C(O)(C(F)(F)F)C(F)(F)F)cc1 [T0901317] (first compound 5 µM, partner dose 7 µM) | 98.3%

Test system: LOXIMVI
Assay: as above
Details: library dose: standard library concentration; 72 h

SMILES | cell count
O=c1[nH]nc(Sc2ncc([N+](=O)[O-])s2)n1-c1ccc2c(c1)OCCO2 + Cn1nnc2c(C(N)=O)ncn2c1=O [temozolomide] (first compound 1 µM, partner dose 10 µM) | 99.2%
Cn1cncc1[C@@](N)(c1ccc(Cl)cc1)c1ccc2c(c1)c(-c1cccc(Cl)c1)cc(=O)n2C [tipifarnib] + O=C(O)C(=O)Nc1sc2c(c1C(=O)O)CCNC2 [TCS401] (first compound 0.05 µM, partner dose 8.33333 µM) | 88.7%
O=C(Nc1cccc(Cl)c1)Nc1ncc(CCNc2ncnc3ccsc23)s1 + CCc1ccc(CCOc2ccc(CC3SC(=O)NC3=O)cc2)nc1 [pioglitazone] (first compound 0.004 µM, partner dose 10 µM) | 78.1%
O=c1[nH]nc(Sc2ncc([N+](=O)[O-])s2)n1-c1ccc2c(c1)OCCO2 + O=C(O)c1ccc(-c2c[nH]c3ncc(-c4ccccc4)cc23)cc1C1CCCC1 [GSK650394] (first compound 1 µM, partner dose 0.8 µM) | 79.5%
O=c1[nH]nc(Sc2ncc([N+](=O)[O-])s2)n1-c1ccc2c(c1)OCCO2 + O=C(Nc1cccc(Cl)c1)Nc1ncc(CCNc2ncnc3ccsc23)s1 [SNS314] (first compound 1 µM, partner dose 0.004 µM) | 81.4%
COc1cc(Nc2ncc(F)c(Nc3ccc4c(n3)NC(=O)C(C)(C)O4)n2)cc(OC)c1OC [Tamatinib] + CCCCCCCCCCCC1=C(O)C(=O)C=C(O)C1=O [Embelin] (first compound 2 µM, partner dose 6 µM) | 36.8%
CC1(C)NC(=O)N(c2ccc([N+](=O)[O-])c(C(F)(F)F)c2)C1=O [nilutamide] + O=C1NC(=O)/C(=C/c2ccc(-c3ccc(F)cc3O)o2)S1 [AS252424] (first compound 5 µM, partner dose 5 µM) | 102%
Cn1cncc1[C@@](N)(c1ccc(Cl)cc1)c1ccc2c(c1)c(-c1cccc(Cl)c1)cc(=O)n2C [tipifarnib] + O=C(Nc1ccccc1)c1cc([N+](=O)[O-])ccc1Cl [GW9662] (first compound 0.05 µM, partner dose 10 µM) | 72.7%
O=c1[nH]nc(Sc2ncc([N+](=O)[O-])s2)n1-c1ccc2c(c1)OCCO2 + C[C@@H](N)c1ccc(C(=O)Nc2ccnc3[nH]ccc23)cc1 [RKI983] (first compound 1 µM, partner dose 2 µM) | 113%
O=C(O)c1ccc(-c2c[nH]c3ncc(-c4ccccc4)cc23)cc1C1CCCC1 + COc1cc(N2CCC(N3CCN(C)CC3)CC2)ccc1Nc1ncc(Cl)c(Nc2ccccc2S(=O)(=O)C(C)C)n1 [NVP-TAE684] (first compound 0.8 µM, partner dose 0.4 µM) | 82.9%
O=c1[nH]nc(Sc2ncc([N+](=O)[O-])s2)n1-c1ccc2c(c1)OCCO2 + COc1cc(Nc2ncc(F)c(Nc3ccc4c(n3)NC(=O)C(C)(C)O4)n2)cc(OC)c1OC [Tamatinib] (first compound 1 µM, partner dose 2 µM) | 29.1%
O=c1[nH]nc(Sc2ncc([N+](=O)[O-])s2)n1-c1ccc2c(c1)OCCO2 + COc1cc(N2CCC(N3CCN(C)CC3)CC2)ccc1Nc1ncc(Cl)c(Nc2ccccc2S(=O)(=O)C(C)C)n1 [NVP-TAE684] (first compound 1 µM, partner dose 0.4 µM) | 87.3%
COc1cc(Nc2ncc(F)c(Nc3ccc4c(n3)NC(=O)C(C)(C)O4)n2)cc(OC)c1OC [Tamatinib] + CC1(C)NC(=O)N(c2ccc([N+](=O)[O-])c(C(F)(F)F)c2)C1=O [nilutamide] (first compound 2 µM, partner dose 5 µM) | 20%
O=C(O)c1ccc(-c2c[nH]c3ncc(-c4ccccc4)cc23)cc1C1CCCC1 + COc1ccc2c(c1)CCC1C2CCC2(C)C(NCCCCCCN3C(=O)C=CC3=O)CCC12 [U73122] (first compound 0.8 µM, partner dose 2 µM) | 75.3%
O=c1[nH]nc(Sc2ncc([N+](=O)[O-])s2)n1-c1ccc2c(c1)OCCO2 + CO[C@@H]1[C@H](N(C)C(=O)c2ccccc2)C[C@H]2O[C@]1(C)n1c3ccccc3c3c4c(c5c6ccccc6n2c5c31)C(=O)NC4 [Midostaurin] (first compound 1 µM, partner dose 0.4 µM) | 75.4%
Cn1cncc1[C@@](N)(c1ccc(Cl)cc1)c1ccc2c(c1)c(-c1cccc(Cl)c1)cc(=O)n2C [tipifarnib] + NCC(=O)Nc1ccc(-n2nc(C(F)(F)F)cc2-c2ccc3c(ccc4ccccc43)c2)cc1 [OSU03012] (first compound 0.05 µM, partner dose 5 µM) | 81.2%
C[C@@H]1CCN(C(=O)CC#N)C[C@@H]1N(C)c1ncnc2[nH]ccc12 + Cc1cc([N+](=O)[O-])ccc1NS(=O)(=O)c1cc(Cl)ccc1Cl [FH535] (first compound 5 µM, partner dose 5 µM) | 58.2%
CC1(C)NC(=O)N(c2ccc([N+](=O)[O-])c(C(F)(F)F)c2)C1=O [nilutamide] + N#Cc1c(O)c2c(-c3ccc(-c4ccccc4O)cc3)csc2[nH]c1=O [A769662] (first compound 5 µM, partner dose 10 µM) | 89.8%
